Data on 63 sequences can be found in paper PMC12820563.

Some of the results follow. The list includes weakly bound sequences.

The experiment addresses T1, MBP-FoxP3dN (UniProt Q99JB6).
T1 sequence: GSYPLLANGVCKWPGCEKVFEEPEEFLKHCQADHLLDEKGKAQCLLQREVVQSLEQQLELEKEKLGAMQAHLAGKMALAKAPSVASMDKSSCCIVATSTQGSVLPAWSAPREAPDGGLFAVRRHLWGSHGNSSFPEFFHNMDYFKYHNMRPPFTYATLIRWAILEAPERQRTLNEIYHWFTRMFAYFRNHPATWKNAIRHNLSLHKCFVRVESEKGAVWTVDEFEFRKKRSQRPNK
Put plainly: PD-seq (MBP pull-down with sequencing). The conditions noted are these: 20 mM Tris-HCl pH 7.5, 100 mM NaCl, 1.5 mM MgCl2, 0.4 uM protein, 0.1 uM dsDNA library, 30 min, room temperature, amylose pull-down; high values mean tight binding; double strand, one strand shown.
Take “GATGATTGTTCTCCCAGCTGATGAATTTCTAGACTCGAGTAAACAAATTTTCCTAATCTTTCTGTTCAAGCGCCATCTAC”: the binding signal (RPM ratio (pull-down/input)) was determined as 0.22. Under “GATGATTGTTCTCCCAGCTGATGAATTGTAGCGATCGAGTAAACAAATTTTCCTAATCTTTCTGTTCAAGCGCCATCTAC” stands 0.85. “GATGATTGTTCTCCCAGCTGATGAATTGTATTATTCGAGTAAACAAATTTTCCTAATCTTTCTGTTCAAGCGCCATCTAC”: the binding signal (RPM ratio (pull-down/input)) is 5.22. With “GATGATTGTTCTCCCAGCTGATGAATTGGTTTGCTCGAGTAAACAAATTTTCCTAATCTTTCTGTTCAAGCGCCATCTAC” the figure was 4.24; with “GATGATTGTTCTCCCAGCTGATGAATTTGTAACCTCGAGTAAACAAATTTTCCTAATCTTTCTGTTCAAGCGCCATCTAC”, 1.74. For “GATGATTGTTCTCCCAGCTGATGAATTGGTTAATTCGAGTAAACAAATTTTCCTAATCTTTCTGTTCAAGCGCCATCTAC”, the binding signal (RPM ratio (pull-down/input)) is 0.456. For “GATGATTGTTCTCCCAGCTGATGAATTGAGTCGTTCGAGTAAACAAATTTTCCTAATCTTTCTGTTCAAGCGCCATCTAC”, the binding signal (RPM ratio (pull-down/input)) turned out to be 0.673. Under “GATGATTGTTCTCCCAGCTGATGAATTGTATAATTCGAGTAAACAAATTTTCCTAATCTTTCTGTTCAAGCGCCATCTAC” stands 1.1; under “GATGATTGTTCTCCCAGCTGATGAATTCGGCCTCTCGAGTAAACAAATTTTCCTAATCTTTCTGTTCAAGCGCCATCTAC”, 5.44. With “GATGATTGTTCTCCCAGCTGATGAATTCGACTAATCGAGTAAACAAATTTTCCTAATCTTTCTGTTCAAGCGCCATCTAC”, the binding signal (RPM ratio (pull-down/input)) worked out at 0.31. On to “GATGATTGTTCTCCCAGCTGATGAATTCGCGCTTTCGAGTAAACAAATTTTCCTAATCTTTCTGTTCAAGCGCCATCTAC”, for which the binding signal (RPM ratio (pull-down/input)) stood at 1.34.

Consider “GATGATTGTTCTCCCAGCTGATGAATTCAATTCATCGAGTAAACAAATTTTCCTAATCTTTCTGTTCAAGCGCCATCTAC”, for which the binding signal (RPM ratio (pull-down/input)) was 0.493.

In the case of “GATGATTGTTCTCCCAGCTGATGAATTACTGGAATCGAGTAAACAAATTTTCCTAATCTTTCTGTTCAAGCGCCATCTAC”, the binding signal (RPM ratio (pull-down/input)) was determined as 0.268. Under “GATGATTGTTCTCCCAGCTGATGAATTCGAGATGTCGAGTAAACAAATTTTCCTAATCTTTCTGTTCAAGCGCCATCTAC” stands 0.429; under “GATGATTGTTCTCCCAGCTGATGAATTGCCCGTTTCGAGTAAACAAATTTTCCTAATCTTTCTGTTCAAGCGCCATCTAC”, 0.503. Turning to “GATGATTGTTCTCCCAGCTGATGAATTAAGGGTGTCGAGTAAACAAATTTTCCTAATCTTTCTGTTCAAGCGCCATCTAC”, the binding signal (RPM ratio (pull-down/input)) is 0.679. As to “GATGATTGTTCTCCCAGCTGATGAATTGCAGCTGTCGAGTAAACAAATTTTCCTAATCTTTCTGTTCAAGCGCCATCTAC”, the binding signal (RPM ratio (pull-down/input)) is 0.961.

Regarding “GATGATTGTTCTCCCAGCTGATGAATTAGCGTAGTCGAGTAAACAAATTTTCCTAATCTTTCTGTTCAAGCGCCATCTAC”, the binding signal (RPM ratio (pull-down/input)) was determined as 0.719. Regarding “GATGATTGTTCTCCCAGCTGATGAATTGGTTGACTCGAGTAAACAAATTTTCCTAATCTTTCTGTTCAAGCGCCATCTAC”, the binding signal (RPM ratio (pull-down/input)) was found to be 3.33. With “GATGATTGTTCTCCCAGCTGATGAATTGGCCTTGTCGAGTAAACAAATTTTCCTAATCTTTCTGTTCAAGCGCCATCTAC” the figure was 0.517; with “GATGATTGTTCTCCCAGCTGATGAATTGTAACTCTCGAGTAAACAAATTTTCCTAATCTTTCTGTTCAAGCGCCATCTAC”, 0.839; with “GATGATTGTTCTCCCAGCTGATGAATTACCCGCATCGAGTAAACAAATTTTCCTAATCTTTCTGTTCAAGCGCCATCTAC”, 0.961. Under “GATGATTGTTCTCCCAGCTGATGAATTGCTGCTATCGAGTAAACAAATTTTCCTAATCTTTCTGTTCAAGCGCCATCTAC” stands 1.05; under “GATGATTGTTCTCCCAGCTGATGAATTCATAATATCGAGTAAACAAATTTTCCTAATCTTTCTGTTCAAGCGCCATCTAC”, 0.693. Under “GATGATTGTTCTCCCAGCTGATGAATTACTCCACTCGAGTAAACAAATTTTCCTAATCTTTCTGTTCAAGCGCCATCTAC” stands 0.339; under “GATGATTGTTCTCCCAGCTGATGAATTAACAGCGTCGAGTAAACAAATTTTCCTAATCTTTCTGTTCAAGCGCCATCTAC”, 0.559.

Take “GATGATTGTTCTCCCAGCTGATGAATTAATGAAATCGAGTAAACAAATTTTCCTAATCTTTCTGTTCAAGCGCCATCTAC”: the binding signal (RPM ratio (pull-down/input)) was found to be 0.31. Regarding “GATGATTGTTCTCCCAGCTGATGAATTATGGTCTTCGAGTAAACAAATTTTCCTAATCTTTCTGTTCAAGCGCCATCTAC”, the binding signal (RPM ratio (pull-down/input)) stood at 0.688. Under “GATGATTGTTCTCCCAGCTGATGAATTAGAGTTATCGAGTAAACAAATTTTCCTAATCTTTCTGTTCAAGCGCCATCTAC” stands 0.768; under “GATGATTGTTCTCCCAGCTGATGAATTCGTTCGGTCGAGTAAACAAATTTTCCTAATCTTTCTGTTCAAGCGCCATCTAC”, 0.306. With “GATGATTGTTCTCCCAGCTGATGAATTTTCGTCCTCGAGTAAACAAATTTTCCTAATCTTTCTGTTCAAGCGCCATCTAC” the figure was 0.297; with “GATGATTGTTCTCCCAGCTGATGAATTAGTTTTATCGAGTAAACAAATTTTCCTAATCTTTCTGTTCAAGCGCCATCTAC”, 2.34; with “GATGATTGTTCTCCCAGCTGATGAATTCCGGTCATCGAGTAAACAAATTTTCCTAATCTTTCTGTTCAAGCGCCATCTAC”, 0.506.

Take “GATGATTGTTCTCCCAGCTGATGAATTCGTGGGTTCGAGTAAACAAATTTTCCTAATCTTTCTGTTCAAGCGCCATCTAC”: the binding signal (RPM ratio (pull-down/input)) came out at 0.697. With “GATGATTGTTCTCCCAGCTGATGAATTATTGCAGTCGAGTAAACAAATTTTCCTAATCTTTCTGTTCAAGCGCCATCTAC” the figure was 1.18; with “GATGATTGTTCTCCCAGCTGATGAATTGGTTTAGTCGAGTAAACAAATTTTCCTAATCTTTCTGTTCAAGCGCCATCTAC”, 2.22. Consider “GATGATTGTTCTCCCAGCTGATGAATTTTCAAAATCGAGTAAACAAATTTTCCTAATCTTTCTGTTCAAGCGCCATCTAC”, for which the binding signal (RPM ratio (pull-down/input)) came to 0.212. As for “GATGATTGTTCTCCCAGCTGATGAATTACGCACATCGAGTAAACAAATTTTCCTAATCTTTCTGTTCAAGCGCCATCTAC”, the binding signal (RPM ratio (pull-down/input)) was 1.12.

For “GATGATTGTTCTCCCAGCTGATGAATTGGTGATATCGAGTAAACAAATTTTCCTAATCTTTCTGTTCAAGCGCCATCTAC”, the binding signal (RPM ratio (pull-down/input)) amounted to 0.67. Under “GATGATTGTTCTCCCAGCTGATGAATTGCGACGCTCGAGTAAACAAATTTTCCTAATCTTTCTGTTCAAGCGCCATCTAC” stands 0.891; under “GATGATTGTTCTCCCAGCTGATGAATTCATCCGTTCGAGTAAACAAATTTTCCTAATCTTTCTGTTCAAGCGCCATCTAC”, 0.347. With “GATGATTGTTCTCCCAGCTGATGAATTGTTCATGTCGAGTAAACAAATTTTCCTAATCTTTCTGTTCAAGCGCCATCTAC”, the binding signal (RPM ratio (pull-down/input)) is 0.5. Under “GATGATTGTTCTCCCAGCTGATGAATTTGTATCCTCGAGTAAACAAATTTTCCTAATCTTTCTGTTCAAGCGCCATCTAC” stands 5.4.

Take “GATGATTGTTCTCCCAGCTGATGAATTTGCCACATCGAGTAAACAAATTTTCCTAATCTTTCTGTTCAAGCGCCATCTAC”: the binding signal (RPM ratio (pull-down/input)) is 2.39.

Take “GATGATTGTTCTCCCAGCTGATGAATTCTCAATTTCGAGTAAACAAATTTTCCTAATCTTTCTGTTCAAGCGCCATCTAC”: the binding signal (RPM ratio (pull-down/input)) is 0.298.

In the case of “GATGATTGTTCTCCCAGCTGATGAATTCTGGTTTTCGAGTAAACAAATTTTCCTAATCTTTCTGTTCAAGCGCCATCTAC”, the binding signal (RPM ratio (pull-down/input)) is 0.747.

In the case of “GATGATTGTTCTCCCAGCTGATGAATTCGCGAAATCGAGTAAACAAATTTTCCTAATCTTTCTGTTCAAGCGCCATCTAC”, the binding signal (RPM ratio (pull-down/input)) came to 0.371.

Take “GATGATTGTTCTCCCAGCTGATGAATTAACTTCGTCGAGTAAACAAATTTTCCTAATCTTTCTGTTCAAGCGCCATCTAC”: the binding signal (RPM ratio (pull-down/input)) worked out at 0.263. As for “GATGATTGTTCTCCCAGCTGATGAATTCATGGAGTCGAGTAAACAAATTTTCCTAATCTTTCTGTTCAAGCGCCATCTAC”, the binding signal (RPM ratio (pull-down/input)) was found to be 0.277.

For the sequence “GATGATTGTTCTCCCAGCTGATGAATTGATGGTTTCGAGTAAACAAATTTTCCTAATCTTTCTGTTCAAGCGCCATCTAC”, the binding signal (RPM ratio (pull-down/input)) amounted to 1.09. On to “GATGATTGTTCTCCCAGCTGATGAATTAGTTAGTTCGAGTAAACAAATTTTCCTAATCTTTCTGTTCAAGCGCCATCTAC”, for which the binding signal (RPM ratio (pull-down/input)) amounted to 4.22. Turning to “GATGATTGTTCTCCCAGCTGATGAATTTCTTTATTCGAGTAAACAAATTTTCCTAATCTTTCTGTTCAAGCGCCATCTAC”, the binding signal (RPM ratio (pull-down/input)) amounted to 1.53.

As for “GATGATTGTTCTCCCAGCTGATGAATTCTCTCACTCGAGTAAACAAATTTTCCTAATCTTTCTGTTCAAGCGCCATCTAC”, the binding signal (RPM ratio (pull-down/input)) was determined as 0.266. Consider “GATGATTGTTCTCCCAGCTGATGAATTATATGCATCGAGTAAACAAATTTTCCTAATCTTTCTGTTCAAGCGCCATCTAC”, for which the binding signal (RPM ratio (pull-down/input)) came out at 1.56.

Regarding “GATGATTGTTCTCCCAGCTGATGAATTGGCGAGCTCGAGTAAACAAATTTTCCTAATCTTTCTGTTCAAGCGCCATCTAC”, the binding signal (RPM ratio (pull-down/input)) was 0.276. As to “GATGATTGTTCTCCCAGCTGATGAATTCGAGTCCTCGAGTAAACAAATTTTCCTAATCTTTCTGTTCAAGCGCCATCTAC”, the binding signal (RPM ratio (pull-down/input)) came out at 0.547. In the case of “GATGATTGTTCTCCCAGCTGATGAATTCGGACGCTCGAGTAAACAAATTTTCCTAATCTTTCTGTTCAAGCGCCATCTAC”, the binding signal (RPM ratio (pull-down/input)) turned out to be 0.343. With “GATGATTGTTCTCCCAGCTGATGAATTCGCTTCGTCGAGTAAACAAATTTTCCTAATCTTTCTGTTCAAGCGCCATCTAC”, the binding signal (RPM ratio (pull-down/input)) is 0.562. With “GATGATTGTTCTCCCAGCTGATGAATTCAGGGAATCGAGTAAACAAATTTTCCTAATCTTTCTGTTCAAGCGCCATCTAC” the figure was 0.177; with “GATGATTGTTCTCCCAGCTGATGAATTGACGGACTCGAGTAAACAAATTTTCCTAATCTTTCTGTTCAAGCGCCATCTAC”, 0.274. Turning to “GATGATTGTTCTCCCAGCTGATGAATTGGTAAACTCGAGTAAACAAATTTTCCTAATCTTTCTGTTCAAGCGCCATCTAC”, the binding signal (RPM ratio (pull-down/input)) was 0.845.

As to “GATGATTGTTCTCCCAGCTGATGAATTATATCTATCGAGTAAACAAATTTTCCTAATCTTTCTGTTCAAGCGCCATCTAC”, the binding signal (RPM ratio (pull-down/input)) was 0.73.

Consider “GATGATTGTTCTCCCAGCTGATGAATTTGTAAAATCGAGTAAACAAATTTTCCTAATCTTTCTGTTCAAGCGCCATCTAC”, for which the binding signal (RPM ratio (pull-down/input)) came out at 0.357.
